Experimental data reported in PMC6179962, “POLE3-POLE4 Is a Histone H3-H4 Chaperone that Maintains Chromatin Integrity during DNA Replication” (Molecular Cell, 2018).
Numbering of substitutions follows the chain as printed. No constants are given. Whether binding was seen depends on the method and setting. For some of these results: Binding seen in cells or lysates may run through a third protein. Some results given as binding are weak or reduced against the parent protein; the word gives no strength. For some of these results: Sequences can lack the tags named with a protein.

The chains behind the UniProt entries cited, without tags or fusion partners. Where a name states a change or a piece, a line headed by the entry shows the natural chain unless it says otherwise.
UniProt Q9NRF9: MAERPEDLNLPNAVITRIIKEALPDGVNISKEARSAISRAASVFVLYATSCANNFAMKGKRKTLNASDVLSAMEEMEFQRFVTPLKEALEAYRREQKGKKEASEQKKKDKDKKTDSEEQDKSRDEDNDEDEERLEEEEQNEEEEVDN
UniProt Q07864: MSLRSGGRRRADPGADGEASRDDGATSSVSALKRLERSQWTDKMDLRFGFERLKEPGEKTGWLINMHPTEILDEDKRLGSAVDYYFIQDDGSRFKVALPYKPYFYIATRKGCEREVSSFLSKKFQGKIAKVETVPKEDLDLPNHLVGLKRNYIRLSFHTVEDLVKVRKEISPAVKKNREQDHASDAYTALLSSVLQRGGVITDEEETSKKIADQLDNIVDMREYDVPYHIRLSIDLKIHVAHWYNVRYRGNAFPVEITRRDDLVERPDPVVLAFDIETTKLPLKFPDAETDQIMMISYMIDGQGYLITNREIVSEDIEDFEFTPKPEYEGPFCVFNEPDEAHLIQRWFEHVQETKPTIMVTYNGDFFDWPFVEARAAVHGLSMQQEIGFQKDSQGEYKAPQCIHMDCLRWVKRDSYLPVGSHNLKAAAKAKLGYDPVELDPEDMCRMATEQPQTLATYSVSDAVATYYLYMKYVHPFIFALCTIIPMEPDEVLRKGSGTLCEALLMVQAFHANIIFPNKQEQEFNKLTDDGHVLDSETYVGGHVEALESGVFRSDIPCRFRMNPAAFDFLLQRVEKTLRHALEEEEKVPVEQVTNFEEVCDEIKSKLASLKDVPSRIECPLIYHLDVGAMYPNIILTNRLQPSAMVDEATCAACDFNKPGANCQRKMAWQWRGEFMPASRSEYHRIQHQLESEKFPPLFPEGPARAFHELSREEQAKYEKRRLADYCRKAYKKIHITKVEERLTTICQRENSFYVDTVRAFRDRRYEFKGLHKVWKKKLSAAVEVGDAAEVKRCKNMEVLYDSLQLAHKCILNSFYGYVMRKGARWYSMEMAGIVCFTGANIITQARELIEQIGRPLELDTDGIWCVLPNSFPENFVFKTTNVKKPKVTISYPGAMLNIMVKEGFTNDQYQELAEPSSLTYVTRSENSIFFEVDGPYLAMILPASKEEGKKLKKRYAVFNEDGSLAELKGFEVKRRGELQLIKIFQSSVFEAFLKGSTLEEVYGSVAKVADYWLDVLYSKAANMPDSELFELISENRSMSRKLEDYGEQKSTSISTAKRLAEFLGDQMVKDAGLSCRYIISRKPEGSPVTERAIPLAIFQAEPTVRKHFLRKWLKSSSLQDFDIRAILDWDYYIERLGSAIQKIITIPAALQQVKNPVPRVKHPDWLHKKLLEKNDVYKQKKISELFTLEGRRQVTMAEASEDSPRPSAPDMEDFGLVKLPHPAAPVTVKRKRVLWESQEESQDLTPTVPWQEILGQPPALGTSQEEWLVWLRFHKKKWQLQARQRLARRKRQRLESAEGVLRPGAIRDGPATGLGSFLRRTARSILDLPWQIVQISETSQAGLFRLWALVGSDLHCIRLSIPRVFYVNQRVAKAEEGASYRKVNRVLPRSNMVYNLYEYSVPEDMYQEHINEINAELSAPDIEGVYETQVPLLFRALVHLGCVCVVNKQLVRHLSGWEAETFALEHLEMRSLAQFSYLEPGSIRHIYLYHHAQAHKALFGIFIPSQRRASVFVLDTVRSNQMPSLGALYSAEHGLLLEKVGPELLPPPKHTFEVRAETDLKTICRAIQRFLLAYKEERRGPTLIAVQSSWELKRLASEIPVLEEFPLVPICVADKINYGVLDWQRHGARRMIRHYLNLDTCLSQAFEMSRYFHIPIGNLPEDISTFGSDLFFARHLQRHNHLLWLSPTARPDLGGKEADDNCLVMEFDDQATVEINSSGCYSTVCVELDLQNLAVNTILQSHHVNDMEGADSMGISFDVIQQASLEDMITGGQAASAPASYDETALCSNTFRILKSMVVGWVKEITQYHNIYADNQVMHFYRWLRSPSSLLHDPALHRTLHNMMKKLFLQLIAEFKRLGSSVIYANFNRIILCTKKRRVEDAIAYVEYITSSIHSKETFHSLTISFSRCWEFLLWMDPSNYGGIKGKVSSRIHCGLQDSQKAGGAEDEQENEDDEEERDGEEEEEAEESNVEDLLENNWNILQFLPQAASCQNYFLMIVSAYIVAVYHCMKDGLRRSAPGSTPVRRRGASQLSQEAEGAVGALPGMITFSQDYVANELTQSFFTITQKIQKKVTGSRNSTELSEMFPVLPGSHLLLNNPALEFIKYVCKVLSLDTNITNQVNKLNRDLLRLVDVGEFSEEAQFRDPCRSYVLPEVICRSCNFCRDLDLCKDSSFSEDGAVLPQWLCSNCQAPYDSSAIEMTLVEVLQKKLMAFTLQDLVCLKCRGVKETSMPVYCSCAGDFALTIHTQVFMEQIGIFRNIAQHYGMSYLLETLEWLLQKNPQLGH

T1: GST-tagged POLE4 F74A (human) (UniProt Q9NR33)
T1 sequence: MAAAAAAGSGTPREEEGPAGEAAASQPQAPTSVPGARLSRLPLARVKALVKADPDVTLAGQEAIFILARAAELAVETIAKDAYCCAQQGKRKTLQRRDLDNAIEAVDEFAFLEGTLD

T2: GST-tagged POLE4 F74D (human) (UniProt Q9NR33)
T2 sequence: T1 sequence with A74D

T3: FLAG-tagged POLE4 WT (human) (UniProt Q9NR33)
T3 sequence: T1 sequence with A74F

T4: FLAG-tagged POLE4 F74D (human) (UniProt Q9NR33)
T4 sequence: T1 sequence with A74D

B1: endogenous POLE4 (protein, UniProt Q9NR33 1-117)
chain: T1 sequence with A74F
B2: POLE2 (protein, UniProt P56282 1-527)
chain: MAPERLRSRALSAFKLRGLLLRGEAIKYLTEALQSISELELEDKLEKIINAVEKQPLSSNMIERSVVEAAVQECSQSVDETIEHVFNIIGAFDIPRFVYNSERKKFLPLLMTNHPAPNLFGTPRDKAEMFRERYTILHQRTHRHELFTPPVIGSHPDESGSKFQLKTIETLLGSTTKIGDAIVLGMITQLKEGKFFLEDPTGTVQLDLSKAQFHSGLYTEACFVLAEGWFEDQVFHVNAFGFPPTEPSSTTRAYYGNINFFGGPSNTSVKTSAKLKQLEEENKDAMFVFLSDVWLDQVEVLEKLRIMFAGYSPAPPTCFILCGNFSSAPYGKNQVQALKDSLKTLADIICEYPDIHQSSRFVFVPGPEDPGFGSILPRPPLAESITNEFRQRVPFSVFTTNPCRIQYCTQEITVFREDLVNKMCRNCVRFPSSNLAIPNHFVKTILSQGHLTPLPLYVCPVYWAYDYALRVYPVPDLLVIADKYDPFTTTNTECLCINPGSFPRSGFSFKVFYPSNKTVEDSKLQGF
B3: His-tagged POLE4 (natural protein, human, UniProt Q9NR33 1-117, looked up)
chain: T1 sequence with A74F
notes: DNA polymerase epsilon subunit POLE4, human; cloned via Gateway into pDEST17; also called His-POLE4; source: E. coli BL21(DE3) pLysS, purified (Ni-NTA)

How the values were obtained:
[1] = biological target: T1, GST-tagged POLE4 F74A (human); assay: pull-down; GST-tagged POLE3 or POLE4 (WT or mutant) on glutathione beads with His-tagged POLE4 or POLE3; 150 mM and 1 M NaCl (Figures S1A, S1B); salt of Figure 1C not told; both purified
[2] = biological target: T2, GST-tagged POLE4 F74D (human); assay: as above
[3] = biological target: T3, FLAG-tagged POLE4 WT (human); assay: co-IP; FLAG IP from whole-cell extracts of HeLa TRex cells; western blot
[4] = biological target: FLAG-tagged POLE3 WT (human) (UniProt Q9NRF9); assay: as above
[5] = biological target: FLAG-tagged POLE3 F44D (human) (UniProt Q9NRF9); assay: as above
[6] = biological target: T4, FLAG-tagged POLE4 F74D (human); assay: as above
[7] = biological target: T3, FLAG-tagged POLE4 WT (human); assay: co-IP; IP with anti-POLE3 or anti-FLAG, 2 hr at 4°C, from the soluble fraction (CSK, 0.5% Triton) of HeLa or HeLa TRex cells
[8] = biological target: T3, FLAG-tagged POLE4 WT (human); assay: co-IP; IP with anti-POLE3 or anti-FLAG, 2 hr at 4°C, in 0.1% Triton-CSK from DNaseI-digested chromatin of HeLa or HeLa TRex cells; also in cells expressing MCM2 WT or Y81A-Y90A with endogenous MCM2 knocked down
[9] = biological target: endogenous POLE3 (human (endogenous in HeLa)) (UniProt Q9NRF9); assay: as above
[10] = biological target: GST-tagged POLE3 F44A (human) (UniProt Q9NRF9); assay: pull-down; GST-tagged POLE3 or POLE4 (WT or mutant) on glutathione beads with His-tagged POLE4 or POLE3; 150 mM and 1 M NaCl (Figures S1A, S1B); salt of Figure 1C not told; both purified
[11] = biological target: GST-tagged POLE3 F44D (human) (UniProt Q9NRF9); assay: as above

Molecule | binding [3] | binding [4] | binding [5] | binding [6] | also measured
His-tagged POLE3 (from UniProt Q9NRF9 1-147) |  |  |  |  | binding [1]: no binding; binding [2]: no binding
POLE1, the catalytic subunit of Polε (from UniProt Q07864 1-2286) | binds | binds | no binding | no binding | 
endogenous POLE3 (from UniProt Q9NRF9 1-147) | binds |  |  | no binding | binding [7]: binds; binding [8]: binds
B1 |  | binds | no binding |  | 
B2 | binds | binds | no binding | no binding | binding [9]: binds
B3 |  |  |  |  | binding [10]: no binding; binding [11]: no binding
